Drawing on PubChem BioAssay AID463173 (ICCB-Longwood Screening Facility, Harvard Medical School, 2010), this text covers survival for 90 molecules.

In all, about 52,000 compounds went through this assay and about 1,700 (3.3%) were called active. Cut-off read from the data, not from the text of the source: active = survival mostly below about 52% (no sharp cut-off); inactive = mostly above about 56%. The list shows a part of the results.

The experiment has as its system Wild type. Put plainly: S. aureus survival, RN4220 and DeltatarO strains – OD600, teichoic acid synthesis inhibitors, primary screen (AID 463173). To be noted: S. aureus RN4220 wild type/DeltatarO growth, OD600, 18 h, active compounds read low, screened at 18.75 µg/mL (by protocol).
As for `CCCCc1ccc(NC(=O)c2ccc3c(c2)CCN3S(=O)(=O)c2ccccc2)cc1`, the survival is inactive: 88%.
Next, `O=C(CCCn1c(=O)c2ccccc2n(Cc2cccc(F)c2)c1=O)NCc1ccccc1Cl`: inactive: 86%; `O=C(Nc1ccc(S(=O)(=O)N(Cc2ccccc2)c2ccccc2)cc1)c1ccc(F)cc1`: inactive: 79%.
Take `CCCCNC(=O)c1sc2ncccc2c1-n1cccc1`: the survival was inactive: 47%.
Next, `Nc1c(S(=O)(=O)Cc2ccccc2)sc2nc3c(cc12)CCCC3`: inactive: 122%.
Take `O=C(CCc1ccccc1)N1CCc2c([nH]c3ccccc23)C1c1ccc(F)cc1` (stereo not given): the survival was inactive: 85%.
As to `O=C(NCCCc1nc2ccccc2n1Cc1ccccc1F)c1ccco1`, the survival was inactive: 92%.
As to `CCOC(=O)Cn1c(=O)n(-c2ccc(Cl)cc2)c2nc(-c3ccc(Cl)cc3)nc(C(N)=O)c21`, the survival was inactive: 83%.
As to `Cc1cc2oc(C(=O)Nc3c(C)n(C)n(-c4ccccc4)c3=O)cc(=O)c2cc1C`, the survival is inactive: 83%.
Turning to `COc1ccc(-c2cc(C(=O)Nc3c(C)n(C)n(-c4ccccc4)c3=O)no2)cc1`, the survival is inactive: 73%.
Turning to `CN1C(=O)c2ccccc2Sc2ccc(NC(=O)c3ccc(C#N)cc3)cc21`, the survival was inactive: 92%.
For the molecule `COC(=O)C(CCSC)NC(=O)c1cc2c(n(-c3ccccc3)c1=O)CC(C)(C)CC2=O` (stereo not given), the survival was inactive: 69%.
For `O=c1[nH]c2ccc(S(=O)(=O)Nc3ccccc3)cc2o1`, the survival was inactive: 117%.
With `Cc1cccc(NS(=O)(=O)c2ccc3c(c2)CCCN3C(=O)C2CCC2)c1C`, the survival was inactive: 153%.
In the case of `Cc1nn(C(C)(C)C)c(OC(=O)c2c(F)cccc2F)c1Sc1ccccc1` it was inactive: 117%; in that of `COc1cc(CNc2ccc3[nH]c(=O)[nH]c3c2)cc(Cl)c1OCc1ccc(F)cc1`, inactive: 87%.
For `COc1ccc(NC(=O)CN(c2ccc(C)cc2)S(=O)(=O)c2cccs2)cc1`, the survival is inactive: 84%.
`Cc1ccc2c(=O)cc(C(=O)Nc3nc4ccc(Cl)cc4s3)oc2c1`: the survival was inactive: 65%.
Consider `O=C(Nc1ccc(C(=O)OCc2cc(=O)n3c4c(sc3n2)CCCC4)cc1)c1cccc(F)c1`, for which the survival is inactive: 81%.
As to `Cc1cccc(C(=O)Nc2ccccc2OCc2cc(=O)n3c(C)csc3n2)c1`, the survival is inactive: 90%.
In the case of `O=C(Cn1cc(S(=O)(=O)Cc2ccccc2F)c2ccccc21)NCc1ccccc1` it was inactive: 72%; in that of `Cc1csc2nc(-c3cccc(NC(=O)c4c(F)cccc4F)c3)cn12`, inactive: 121%.
As to `COc1ccc(CCNc2nc3c(c(=O)n(C)c(=O)n3C)n2Cc2ccccc2Cl)cc1OC`, the survival is inactive: 91%.
As to `O=C(NCCc1ccccc1)c1cc(-c2ccc(Cl)c(Cl)c2)on1`, the survival was inactive: 86%.
Consider `CCOc1ccc(Nc2c3c(nc4nncn24)CCC3)cc1`, for which the survival was inactive: 86%.
As to `COc1ccc(C(=O)OCc2cc(=O)n3nc(C4CC4)sc3n2)cc1OC`, the survival was inactive: 119%.
In the case of `O=C(O)C1C2C=CC3(CN(Cc4cccc(Cl)c4Cl)C(=O)C13)O2` (stereo not given), the survival is inactive: 101%.
For the molecule `COc1cc(OC)cc(N2C(=O)CSC23C(=O)Nc2ccccc23)c1` (stereo not given), the survival was inactive: 73%.
In the case of `Cc1c(CC(=O)NCc2ccccc2Cl)c(=O)oc2cc(O)ccc12` it was inactive: 72%.
On to `Cc1cccc(-c2c3c(nc4ncnn24)-c2ccccc2C3=O)c1`, for which the survival is inactive: 112%.
`CCOc1ccc(-c2nnc(SCC(=O)Nc3cccc(Cl)c3C)o2)cc1`: the survival is inactive: 48%.
Next, `CCCNC(=O)CSc1cn(CC(=O)N2CCCCCC2)c2ccccc12`: inactive: 90%; `Cc1ccc2nc(CN3CCN(S(=O)(=O)c4ccc(F)cc4)CC3)oc2c1`: inactive: 59%; `Cc1ccc2oc(C(=O)Nc3ccc(S(=O)(=O)Nc4nc(C)cc(C)n4)cc3)cc(=O)c2c1`: inactive: 106%.
With `CC(C)Oc1ccc(CNS(=O)(=O)c2ccc(-c3cc(C(F)(F)F)on3)s2)cc1`, the survival was inactive: 98%.
Regarding `Cc1ccc(NC(=O)CCn2cnc3onc(-c4ccc(F)cc4)c3c2=O)c(Br)c1`, the survival is inactive: 73%.
In the case of `CCC1CCCCN1C(=O)CSc1nnc(-c2cccnc2)n1-c1ccc(OC)cc1` (stereo not given) it was inactive: 112%; in that of `CN(C)c1ccc(/C=N/c2nc3ccccc3o2)cc1`, inactive: 113%; in that of `COc1ccc(CCNC(=O)CCn2c(=O)c3ccccc3n(Cc3ccccc3C)c2=O)cc1OC`, inactive: 80%.
As to `CN(C)S(=O)(=O)c1ccc(S(=O)(=O)N(Cc2ccccc2F)C2CC2)cc1`, the survival was inactive: 106%.
Regarding `Cc1c(-c2nc(-c3ccc4c(c3)OCO4)no2)nnn1-c1cccc(C(F)(F)F)c1`, the survival is inactive: 72%.
Next, `Cc1ccc(Cl)cc1N1CCN(C(=O)COCc2cc(-c3ccc4c(c3)OCO4)on2)CC1`: inactive: 69%; `Cc1cc2c(cc1S(=O)(=O)Nc1cccc(Cl)c1C)OCCN2C`: inactive: 51%; `COc1ccc(-c2nc3ccccc3o2)cc1NC(=O)c1ccc(-c2cccc(Cl)c2C)o1`: inactive: 70%.
Next, `COc1cccc(NC(=O)C2CCN(c3nnc(-n4c(C)ccc4C)s3)CC2)c1`: inactive: 77%; `Cc1ccc(CNC(=O)C2CCCN(Cc3nc(-c4cccc(C)c4)oc3C)C2)cc1` (stereo not given): active: 4%.
As to `Cc1ccc(-c2nc3c(c(SCC(=O)Nc4cccc(C(=O)O)c4)n2)Cc2cccc(C)c2O3)cc1`, the survival was inactive: 67%.
In the case of `CC1=C(C(=O)Nc2cccc(C(F)(F)F)c2)C2(CCN(C(C)C)CC2)OC1=O` it was inactive: 91%; in that of `CCN(CC)CCNC(=O)c1ccc2c(=O)n3nc(Nc4ccccc4)sc3nc2c1`, inactive: 73%.
On to `CCOc1cc(C2C(C(=O)OC)=C(C)NC3=C2C(=O)c2ccccc23)cc(Br)c1OCC` (stereo not given), for which the survival was inactive: 62%.
With `COc1ccc(N2CC(C(=O)N/N=C/c3ccccc3)CC2=O)cc1` (stereo not given), the survival is inactive: 109%.
With `COc1ccc(CNC(=O)CS(=O)(=O)c2cccc3nsnc23)cc1`, the survival is inactive: 124%.
In the case of `Cc1cc(C)c(NC(=O)Cc2ccc(-n3c(C)nc4cccnc43)cc2)c(C)c1` it was inactive: 74%; in that of `Cn1nnc2cc(NC(=O)NC3CCCCC3)ccc21`, inactive: 102%; in that of `CC1=C(C(=O)OC2CCCCCC2)C(c2ccc(Cl)cc2)CC(=O)N1` (stereo not given), inactive: 88%.
Consider `COc1ccc(Cl)cc1C(=O)NCc1nc(-c2cccc(C)c2)no1`, for which the survival is inactive: 87%.
Take `O=C(c1ccc([N+](=O)[O-])cc1)N1c2ncnn2C2(CCCCC2)[C@@H]2CCCC[C@@H]21`: the survival was inactive: 83%.
Consider `Cc1ccc(OC(=O)CSc2nnc(-c3cccs3)o2)c(C)c1`, for which the survival was inactive: 80%.
Next, `CC(=O)Nc1ccc(NC(=O)C2Cc3ccccc3N2C(=O)c2ccccc2)cc1` (stereo not given): inactive: 73%; `COc1ccc(Cn2c(CCC(=O)Nc3ccccc3OC)nc3cccnc32)cc1`: inactive: 158%.
`Cc1ccc2nc(-c3ccco3)c(Nc3ccc4c(c3)OCCO4)n2c1`: the survival is inactive: 95%.
As for `N=c1oc2ccccc2cc1C(=O)Nc1ccccc1`, the survival is inactive: 112%.
Turning to `COc1ccc(CNC(=O)c2ccc(-c3nc(CS(=O)c4ccc(C)cc4)c(C)o3)cc2)cc1` (stereo not given), the survival is inactive: 71%.
Take `COc1cccc2[nH]c(C(=O)NCc3ccc4c(c3)CCN4C(=O)c3ccc(F)cc3)cc12`: the survival is inactive: 72%.
With `CCc1c(C)nc2nc(-c3ccccc3)nn2c1NCc1ccc(C)cc1`, the survival is active: -1%.
Turning to `NC(=O)/C=C/C(=O)Nc1ccc2c(c1)OCO2`, the survival is inactive: 89%.
As for `O=C(CSc1cn(CCNC(=O)c2c(F)cccc2F)c2ccccc12)Nc1ccccc1F`, the survival is inactive: 81%.
`Cc1oc2ccc(O)c(CN3CCCC(C)C3)c2c1C(=O)Nc1ccccc1` (stereo not given): the survival was inactive: 91%.
In the case of `CC(C)OCCCn1c(=O)c2ccccc2n2c(-c3ccccc3F)nnc12`, the survival was inactive: 88%.
Regarding `COc1ccc2c(c1)c(=O)c(C(=O)c1ccc(Cl)cc1)cn2CC(=O)Nc1ccc2c(c1)OCCO2`, the survival is inactive: 127%.
With `Cc1ccc2nc(-c3c[nH]c4ccccc34)c(Nc3ccc(F)cc3)n2c1`, the survival is inactive: 72%.
In the case of `Cc1ccc(CNC(=O)C(C)n2c(=O)cc(-c3ccccc3)c3c(C)nn(C)c32)cc1` (stereo not given) it was inactive: 71%.
On to `O=C(O)CC1CCCC(c2ccccc2)C1=O` (stereo not given), for which the survival was inactive: 104%.
Consider `Cc1oc(-c2ccccc2Cl)nc1CSc1nncn2c1cc1occc12`, for which the survival is inactive: 80%.
Take `COc1ccc(Br)cc1CNC(=O)Cn1ncn2nc(-c3cccs3)cc2c1=O`: the survival was inactive: 85%.
As to `Cc1ccc(-c2nnn3c2nc(NCc2ccc4c(c2)OCO4)c2ccccc23)cc1`, the survival was inactive: 82%.
In the case of `COc1ccccc1N1CCN(C(=O)c2ccc3c(c2)CCN3S(=O)(=O)c2ccccc2)CC1`, the survival was inactive: 95%.
As for `O=C(CCS(=O)(=O)c1cccc2nonc12)Nc1ccc(F)cc1F`, the survival is inactive: 135%.
Consider `COc1ccc2c(Sc3ccccc3)c(C(=O)NCc3cc(Br)ccc3OC)[nH]c2c1`, for which the survival was inactive: 97%.
Next, `CCCn1c(SCC(=O)c2ccc3c(c2)OCCO3)nnc1-c1ccco1`: inactive: 100%; `O=C(CC(c1cccs1)N1Cc2ccccc2C1=O)Nc1cccc(F)c1` (stereo not given): inactive: 87%; `CCCn1ccc2c(OCC(=O)Nc3ccc(OC)c(OC)c3)cccc2c1=O`: inactive: 69%.
For `Cc1ccc(OCC(=O)Nc2nc(-c3ccc(Br)cc3)ns2)cc1`, the survival is inactive: 79%.
Next, `COc1ccccc1CNC(=O)c1ccc(CSc2nc3ccncc3n2Cc2cccc(F)c2)cc1`: inactive: 86%; `CC(=O)N1NC(=Nc2ccccc2)SC1(C)C`: inactive: 121%; `CCOc1ccccc1CNc1nc2nc(C)c(CC(=O)OC)c(=O)n2[nH]1`: inactive: 91%.
In the case of `Cc1cccc(-c2nc(C)c(CCNC(=O)C(=O)Nc3ccc(C)c(C)c3)s2)c1` it was inactive: 79%.
For the molecule `O=C(CSc1nc(=O)[nH]c2c1CCC2)NCc1ccc(F)cc1`, the survival is inactive: 71%.
As for `CC1CCN(C(=O)c2ccc(Br)cc2)CC1`, the survival is inactive: 106%.
Regarding `CC(=O)Nc1ccc(C(=O)N2CCc3ccccc3C2)cc1`, the survival was inactive: 109%.
